Experimental data: the supplement of paper PMC3334620
The full ranking holds about 33,000 sequences; the median of “E-score (-0.5 to 0.5)” is about -0.032, and the highest 2% start at about 0.36. This is one part of the list.

target: T1, Sko1 (UniProt Q02100); test: PBM E-score (8-mer binding enrichment) (E-score (-0.5 to 0.5)); higher = stronger / more preferred TF binding; most listed sequences are background and not binding sites; conditions: protein concentration: 200 nM; construct: GST-full length
T1 sequence: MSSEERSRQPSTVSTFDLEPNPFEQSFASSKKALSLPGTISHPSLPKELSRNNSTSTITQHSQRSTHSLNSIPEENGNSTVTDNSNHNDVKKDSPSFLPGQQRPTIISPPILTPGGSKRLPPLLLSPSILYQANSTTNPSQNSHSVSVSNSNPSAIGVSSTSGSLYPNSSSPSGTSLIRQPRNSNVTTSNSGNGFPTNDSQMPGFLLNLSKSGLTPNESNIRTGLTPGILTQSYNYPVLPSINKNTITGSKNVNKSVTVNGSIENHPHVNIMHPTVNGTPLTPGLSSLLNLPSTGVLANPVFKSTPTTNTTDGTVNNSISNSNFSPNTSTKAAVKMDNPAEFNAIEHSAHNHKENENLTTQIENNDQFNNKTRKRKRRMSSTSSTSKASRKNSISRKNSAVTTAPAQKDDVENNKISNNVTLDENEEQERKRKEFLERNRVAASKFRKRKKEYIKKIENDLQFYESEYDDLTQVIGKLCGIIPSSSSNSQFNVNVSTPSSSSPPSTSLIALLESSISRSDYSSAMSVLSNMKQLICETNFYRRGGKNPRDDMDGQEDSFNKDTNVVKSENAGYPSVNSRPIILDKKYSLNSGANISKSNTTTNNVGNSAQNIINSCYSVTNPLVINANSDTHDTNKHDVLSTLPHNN
Protocol: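 Universal 'all 10-mer' protein binding microarrays (Agilent AMADID 015681) probed with GST-tagged S. cerevisiae TFs (full-length or DBD) made by in vitro transcription/translation (PURExpress), about 100-200 nM. Bound TF was detected with fluorescent anti-GST. Each ungapped 8-mer (which stands for itself and its reverse complement) is scored by the PBM enrichment score (E-score), a modified Wilcoxon-Mann-Whitney statistic from -0.5 to +0.5, computed with the Universal PBM Analysis Suite. Scale: above 0.35 generally sequence-specific binding.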

Row | Sequence | PBM E-score
1 | GATTGAAA | 0.073
2 | CCCGTGCA | -0.28
3 | CCTCAGAG | -0.374
4 | TACGCGCA | 0.209
5 | ACGACAGT | 0.126
6 | AATACTCA | 0.145
7 | GTCCCAGA | -0.233
8 | CGAACATC | -0.0609
9 | AGTCTGGC | -0.216
10 | CTCACGAC | -0.102
11 | CCCAAAAG | -0.0879
12 | AAGGCTGG | -0.203
13 | AGTGGAGA | -0.0245
14 | ATAGGGGG | -0.393
15 | ATAGTGGC | 0.0864
16 | AAGGAACG | -0.0151
17 | ATCATACG | 0.365
18 | AGCCGCCG | -0.134
19 | AACACCTG | 0.133
20 | ATACTGAA | 0.185
21 | CATACTGG | 0.0303
22 | GTTCTGTA | 0.0879
23 | ATACGAGC | 0.174
24 | AGAACATA | 0.1
25 | ACTTCAGG | -0.126

Row | Sequence | PBM E-score
26 | CAACGCCA | -0.00072
27 | TTCCCAAA | 0.105
28 | CATGCTGA | -0.0126
29 | GCCCTATA | -0.184
30 | ATCCGGCC | -0.275
31 | CTTGACAC | -0.0385
32 | ACGTGCGC | 0.381
33 | TAAAAAGA | 0.119
34 | ACGACGAC | 0.00819
35 | ATGTGTAA | 0.121
36 | CAGTGCGC | -0.182
37 | GAACATCA | 0.0684
38 | GCTCGTCC | -0.0225
39 | AGGCTATG | -0.23
40 | GAGTTAAC | -0.0263
41 | CCAGGCGC | -0.211
42 | CGTGATTA | 0.314
43 | CTGGAACC | -0.202
44 | AACCAGCT | 0.133
45 | AGTCAGAT | -0.00841
46 | CTTAACGC | -0.00058
47 | ACCCCAGG | -0.411
48 | CGTTGACC | 0.107
49 | CCAATGGA | -0.215
50 | CAGCTGGC | -0.162

Row | Sequence | PBM E-score
51 | GAAGCATC | -0.0844
52 | CGAAATAC | 0.298
53 | GTTGCGTA | 0.422
54 | AAGCTATA | 0.0223
55 | CAAGGGTC | -0.229
56 | AGCAAATA | 0.0649
57 | GGCTCTAA | -0.0936
58 | CAGCCATG | -0.143
59 | CGTAACGC | 0.34
60 | AGGTCAAG | -0.193
61 | GCAGCTCC | -0.268
62 | CCCGCTTA | -0.106
63 | TACTAGAA | 0.124
64 | GGTTAGAA | 0.00193
65 | ATCTCGTA | 0.319
66 | CGAGGTGC | 0.00617
67 | GCTAGCTA | -0.0689
68 | ACGTAAGC | 0.455
69 | AACGGAGT | -0.09
70 | ATGGAGAC | -0.0982
71 | ATTATATC | 0.232
72 | CATGCACC | -0.195
73 | CTCGAGTC | -0.129
74 | GAGCCCAA | -0.0851
75 | GGTATGAA | 0.0631

Row | Sequence | PBM E-score
76 | CTGCGTGA | 0.188
77 | AAGATTGC | -0.0262
78 | GGGTTGCA | -0.00077
79 | CGGTATTC | -0.043
80 | CCAGATAG | -0.133
81 | AAAGTTAT | 0.265
82 | GTCCCACA | -0.00469
83 | AGTAACTC | -0.0356
84 | AACTTGAG | -0.0272
85 | ATGTGCTA | 0.174
86 | CGACCATC | -0.16
87 | CATCCACA | 0.0411
88 | ACGCTAAG | -0.0101
89 | GGACAGGA | -0.217
90 | GTAGTACA | 0.171
91 | ATCACGAT | 0.208
92 | ATCGAAGG | 0.0197
93 | GTGTGAAA | 0.129
94 | CCCACCGA | -0.182
95 | GGCAGATA | -0.0846
96 | GCCGTCGC | -0.133
97 | CTATCTGA | -0.135
98 | CGATTTCC | -0.108
99 | CAGGTCAC | -0.288
100 | TAATCTGA | 0.155

Row | Sequence | PBM E-score
101 | ACGCTTTA | 0.026
102 | GGTTAAGA | 0.0672
103 | ACGCAGAG | 0.108
104 | CAGGCGAC | -0.08
105 | AGCAAAGG | -0.163
106 | GGCGATTA | 0.0687
107 | AATGCTAA | 0.102
108 | AGTGTGGG | -0.197
109 | CTTTTATC | -0.0451
110 | GAAACTCC | -0.27
111 | ATTTCGAA | 0.247
112 | CTTGTCCC | -0.14
113 | GGTGAAAC | -0.0922
114 | AGTAAGAC | 0.125
115 | TCAGATCA | 0.0599
116 | GTACGAGA | 0.2
117 | ACATGACC | -0.00624
118 | CCGAAGAA | -0.0779
119 | ACGAACCC | 0.0159
120 | TATACTCA | 0.192
121 | GCTCCTCA | -0.234
122 | ATAATTTC | 0.299
123 | AGTCAGTA | 0.0569
124 | ATCCTATC | -0.112
125 | GTGAGACA | -0.0497

Row | Sequence | PBM E-score
126 | GCCAAACC | -0.145
127 | ATAGGAAA | 0.175
128 | AGTCCTTC | -0.375
129 | CCCATCCA | -0.314
130 | CGATGCCG | -0.36
131 | CGAGCGGC | -0.177
132 | CAAAGCAA | 0.0522
133 | ACTCAACC | -0.0414
134 | GCCGGCCA | -0.151
135 | ACCCCAAT | 0.125
136 | AGTCAGTC | -0.02
137 | GAGCTAAC | 0.0418
138 | AATTCCGG | -0.065
139 | AGTTGACA | 0.117
140 | CCGGCGTC | -0.053
141 | ACCGCATA | -0.0432
142 | CTCGCGTC | 0.151
143 | CAATATAC | 0.225
144 | ACACCGAT | -0.13
145 | ACAGACAC | 0.0839
146 | CCTACATC | -0.0537
147 | GCTCATCA | -0.0236
148 | ACTATTCT | 0.0612
149 | CGTGCTTA | 0.234
150 | GCCATCCC | -0.319

Row | Sequence | PBM E-score
151 | AGTGCTAC | -0.0938
152 | CCAAGGAC | -0.251
153 | CAAGCTGC | -0.161
154 | CAATAACA | 0.00949
155 | AGAATTGC | -0.0272
156 | TGAGCAAA | 0.133
157 | AGAACGCA | 0.157
158 | TCGATCAA | -0.167
159 | TCTGTCAA | 0.0208
160 | CTGTCTGA | -0.221
161 | ATGTCCGC | -0.0895
162 | GACATCGC | 0.107
163 | ATAAGGTG | 0.232
164 | ATGGTCCA | -0.118
165 | TCGGACAA | 0.0393
166 | TTAGATAA | 0.156
167 | CGTGCATA | 0.208
168 | GAATTATC | 0.251
169 | CACAAAAC | 0.142
170 | CCCCATCC | -0.185
171 | CAACAGTC | -0.102
172 | CGGTTTCC | -0.214
